# Reference: the BET-seq Pho4 binding data (Le et al. 2018)
# This is one part of the list. Values were computed here from the reads of four pooled replicates and scatter widely.
# Target: T1, Pho4 (S. cerevisiae) (UniProt P07270)
# T1 sequence: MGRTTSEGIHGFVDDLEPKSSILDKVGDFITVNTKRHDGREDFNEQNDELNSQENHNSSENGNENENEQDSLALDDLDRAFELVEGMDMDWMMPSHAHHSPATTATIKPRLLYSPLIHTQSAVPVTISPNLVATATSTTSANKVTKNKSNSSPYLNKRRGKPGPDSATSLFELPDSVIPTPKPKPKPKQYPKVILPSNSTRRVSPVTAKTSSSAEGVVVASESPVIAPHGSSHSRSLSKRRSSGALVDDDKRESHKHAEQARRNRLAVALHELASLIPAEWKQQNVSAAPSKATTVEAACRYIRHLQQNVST
# Assay: relative binding free energy (BET-seq); higher = weaker binding
# Settings: reference: library average
row,Sequence,relative binding free energy
1,GGAATCACGTGTGCGG,0.04 kcal/mol
2,TGCTGCACGTGATGAG,0.02 kcal/mol
3,GGCCTCACGTGGTGGG,-0.06 kcal/mol
4,TGAGCCACGTGAGTTT,0.19 kcal/mol
5,TTCTTCACGTGGATTG,0.18 kcal/mol
6,CGCGGCACGTGTAGGG,-0.01 kcal/mol
7,GTTTGCACGTGTCGTT,0.07 kcal/mol
8,TGATACACGTGATGGG,0.21 kcal/mol
9,TATGACACGTGTATGG,-0.04 kcal/mol
10,CGATACACGTGGGTTA,-0.03 kcal/mol
11,TAGTTCACGTGGCGTA,0.28 kcal/mol
12,TCCGACACGTGGGGGT,-0.16 kcal/mol
13,GGGATCACGTGATGCG,0.32 kcal/mol
14,ATTAACACGTGTTAGT,-0.17 kcal/mol
15,TGGAGCACGTGTCGCG,-0.03 kcal/mol
16,ATTACCACGTGGGGTG,-0.17 kcal/mol
17,CCGGTCACGTGGTGGG,-0.02 kcal/mol
18,GTGGGCACGTGATGTA,-0.01 kcal/mol
19,AGTGGCACGTGCTGGC,-0.2 kcal/mol
20,TGGACCACGTGGTTGG,0 kcal/mol
21,TTTAACACGTGGTGAA,-0.05 kcal/mol
22,CGGGACACGTGTGGAG,0.06 kcal/mol
23,AGGTACACGTGACGTT,0.18 kcal/mol

row,Sequence,relative binding free energy
1,TTGAACACGTGGGTAA,0.07 kcal/mol
2,TGTTTCACGTGGCCAG,0.24 kcal/mol
3,TTACTCACGTGTGGGT,0.29 kcal/mol
4,TGAAGCACGTGATGAT,-0.03 kcal/mol
5,GCGAGCACGTGTAAGG,-0.01 kcal/mol
6,GTTCTCACGTGGGGTG,0.22 kcal/mol
7,GTGAACACGTGTTTTG,0.01 kcal/mol
8,TAAGTCACGTGTATCG,0.16 kcal/mol
9,GCGTGCACGTGGGGGG,-0.16 kcal/mol
10,TGGCACACGTGAGTTG,0.2 kcal/mol
11,GGACGCACGTGGGAGT,-0.19 kcal/mol
12,GGTGTCACGTGACATT,0.13 kcal/mol
13,TTGTTCACGTGCATGG,0.29 kcal/mol
14,AAATTCACGTGCGGGT,0.26 kcal/mol
15,CTTGTCACGTGTTCTT,0.05 kcal/mol
16,ATAGGCACGTGATTGG,-0.09 kcal/mol
17,GTTAGCACGTGGGAAA,-0.07 kcal/mol
18,GTTGTCACGTGAACGG,0.22 kcal/mol
19,TGGTTCACGTGTGTTC,0.31 kcal/mol
20,CGAGGCACGTGGGAGC,-0.13 kcal/mol
21,TGGTGCACGTGTAGTG,0.01 kcal/mol
22,TATGACACGTGCTATT,0.01 kcal/mol
23,TTGGGCACGTGGCGGC,-0.2 kcal/mol

row,Sequence,relative binding free energy
1,TTGTGCACGTGGCACG,-0.27 kcal/mol
2,CGAGTCACGTGGTGGA,0.04 kcal/mol
3,AGGAGCACGTGGTGGT,-0.1 kcal/mol
4,ATCTTCACGTGTGTGC,0.13 kcal/mol
5,TTTTGCACGTGGTAAG,-0.05 kcal/mol
6,GATATCACGTGGGAGT,-0.03 kcal/mol
7,GTAAGCACGTGCTAGT,-0.09 kcal/mol
8,AGCGGCACGTGTTGTA,-0.17 kcal/mol
9,ACTTTCACGTGTTTAG,0.22 kcal/mol
10,TAGGCCACGTGTGTGA,-0.18 kcal/mol
11,AGTTACACGTGTGTAC,0.2 kcal/mol
12,ATGGGCACGTGATGAG,-0.07 kcal/mol
13,AGTGGCACGTGCGTGA,-0.31 kcal/mol
14,TTATCCACGTGGTAAT,0.15 kcal/mol
15,CTTGGCACGTGTTAGG,-0.06 kcal/mol
16,AGGTACACGTGTATTT,0.05 kcal/mol
17,TATTACACGTGATTTT,0.23 kcal/mol
18,ATAGCCACGTGTTGAG,-0.05 kcal/mol
19,TCGTTCACGTGGGATG,0.21 kcal/mol
20,TTTGACACGTGGAGGA,-0.03 kcal/mol
21,ATAGGCACGTGAAGGG,0.12 kcal/mol
22,CTTGGCACGTGGGACG,-0.21 kcal/mol
23,CGTCGCACGTGTGGGC,-0.08 kcal/mol

row,Sequence,relative binding free energy
1,AGTTTCACGTGTCTGT,0.18 kcal/mol
2,GTTGGCACGTGCTAAT,-0.08 kcal/mol
3,GAGGGCACGTGTAGTT,0.13 kcal/mol
4,GGTTGCACGTGGCTCG,-0.17 kcal/mol
5,GAGAGCACGTGGGGTA,-0.26 kcal/mol
6,GGCATCACGTGTGTGG,0.11 kcal/mol
7,TGATCCACGTGGTAGG,-0.15 kcal/mol
8,TGGAACACGTGTGTGC,0.16 kcal/mol
9,TGCAGCACGTGTTTTG,-0.04 kcal/mol
10,CTGGGCACGTGGATTT,0.01 kcal/mol
11,TGTAACACGTGGATGC,0.05 kcal/mol
12,GAGGGCACGTGCGTTT,-0.06 kcal/mol
13,AGGCTCACGTGTTTGG,0.27 kcal/mol
14,TCCGTCACGTGTGGTG,0.15 kcal/mol
15,CGGGGCACGTGTAGCA,-0.05 kcal/mol
16,GGGATCACGTGTGTCG,0.24 kcal/mol
17,ATGGGCACGTGAGAGG,0.12 kcal/mol
18,TGGGACACGTGAAAAT,0.34 kcal/mol
19,TGGGTCACGTGTTTAT,0.21 kcal/mol
20,TATAGCACGTGAATGA,0.2 kcal/mol
21,ATTGTCACGTGTGCGA,0.1 kcal/mol
22,TAAGGCACGTGTAAGA,0.01 kcal/mol
23,GGTGGCACGTGAGCTA,0.03 kcal/mol

row,Sequence,relative binding free energy
1,CTCTTCACGTGTGGTT,0.39 kcal/mol
2,GTGACCACGTGGTGGC,-0.03 kcal/mol
3,GGAGGCACGTGCGTGA,-0.18 kcal/mol
4,TGTTTCACGTGGAAAA,0.25 kcal/mol
5,TGCTTCACGTGGTGTC,0.28 kcal/mol
6,GCAGGCACGTGGTTGG,-0.08 kcal/mol
7,TATTACACGTGAAAGT,0.44 kcal/mol
8,AAAATCACGTGGGGTC,0.21 kcal/mol
9,ATGTTCACGTGAGATG,0.44 kcal/mol
10,TGTTTCACGTGGCAAT,0.24 kcal/mol
11,TTATACACGTGGGGGG,-0.07 kcal/mol
12,GGGTGCACGTGGTTCA,-0.05 kcal/mol
13,ATCGCCACGTGGGGAT,-0.11 kcal/mol
14,ATAAGCACGTGGATGA,0.08 kcal/mol
15,TGGTGCACGTGTGTAG,0.07 kcal/mol
16,CTATGCACGTGAGTTT,0.11 kcal/mol
17,GTTAGCACGTGCATGT,-0.01 kcal/mol
18,TTTTGCACGTGGTTAC,-0.04 kcal/mol
19,TAGCTCACGTGTTGTT,0.23 kcal/mol
20,AAGTACACGTGAGGGA,0.31 kcal/mol
21,GAGATCACGTGTGTGA,0.27 kcal/mol
22,GTGTGCACGTGAGTGA,0.34 kcal/mol
23,CTCGGCACGTGTAGGG,-0.12 kcal/mol
